Experimental data: US5760092A, “Allocolchinones and uses thereof” (Brandeis University, priority 1996, dated 1998)

Assays:
[1] = tested on: IGR-OV1 ovarian cancer cells
SN12C renal cancer cells [2] = experiment: cells; conditions: Homo sapiens
SR leukemia cells [3] = tested on: SR leukemia cells
SN12C renal cancer cells [4] = tested on: SN12C renal cancer cells
SK-MEL-28 melanoma cells [5] = experiment: cells; conditions: Homo sapiens
[6] = tested on: DU-145 prostate cancer cells; experiment: cells; conditions: Homo sapiens
[7] = tested on: T-47D breast cancer cells
[8] = tested on: HCC-2998 colon cancer cells; conditions: human, hcc-2998 colon cancer cells
[9] = tested on: IGR-OV1 ovarian cancer cells; experiment: cells; conditions: Homo sapiens
SR leukemia cells [10] = experiment: cells
[11] = tested on: EKVX non-small cell lung cancer cells; experiment: cells; conditions: Homo sapiens
[12] = tested on: OVCAR-4 ovarian cancer cells; experiment: cells; conditions: Homo sapiens, OVCAR-4, read-out: LC50
[13] = tested on: NCI-H460 non-small cell lung cancer cells
RPMI-8226 leukemia cells = experiment: cells; conditions: Homo sapiens
SK-MEL-2 melanoma cells = experiment: cells; conditions: Homo sapiens
HT29 colon cancer cells = experiment: cells; conditions: Homo sapiens
[14] = tested on: MDA-MB-435 breast cancer cells; experiment: cells; conditions: Homo sapiens, MDA-MB-435
[15] = tested on: MDA-N breast cancer cells; experiment: cells; conditions: Homo sapiens
[16] = tested on: BT-549 breast cancer cells; experiment: cells; conditions: Homo sapiens
UACC-257 melanoma cells [17] = tested on: UACC-257 melanoma cells
UACC-257 melanoma cells [18] = experiment: cells; conditions: Homo sapiens
SK-MEL-28 melanoma cells [19] = tested on: SK-MEL-28 melanoma cells
LOX IMVI melanoma cells = experiment: cells; conditions: Homo sapiens
KM12 colon cancer cells = experiment: cells; conditions: Homo sapiens
M14 melanoma cells = experiment: cells; conditions: Homo sapiens
[20] = tested on: OVCAR-4 ovarian cancer cells
UACC-62 melanoma cells = experiment: cells; conditions: Homo sapiens
[21] = tested on: EKVX non-small cell lung cancer cells
[22] = tested on: MDA-MB-435 breast cancer cells
[23] = tested on: NCI-H226 non-small cell lung cancer cells; experiment: cells; conditions: Homo sapiens
[24] = tested on: NCI-H23 non-small cell lung cancer cells; experiment: cells; conditions: Homo sapiens

With `CCCC(=O)NC1CCc2cc(OC)c(OC)c(OC)c2-c2ccc(C(C)=O)cc21` (centres unmarked) as the molecule, how does the TGI [1] read?
The TGI was > 100 µM and 77.2 µM.

And the GI50 (SN12C renal cancer cells [2])?
The GI50 was less than 0.01 µM.

And the CC50 (SN12C renal cancer cells [2]; read-out: LC50)?
Its CC50 is greater than 100 µM.

And the TGI (SR leukemia cells [3])?
The TGI was less than 0.01 µM.

And the TGI (SN12C renal cancer cells [4])?
Its TGI is greater than 100 µM.

And the GI50 (SK-MEL-28 melanoma cells [5]; SK-MEL-28)?
Its GI50 is less than 0.01 µM.

And the CC50 (SK-MEL-28 melanoma cells [5]; SK-MEL-28, read-out: LC50)?
Its CC50 is greater than 100 µM.

And the GI50 ([6]; DU-145)?
The GI50 was less than 0.01 µM.

What about the CC50 ([6]; DU-145, read-out: LC50) of the same molecule?
Its CC50 is greater than 100 µM.

And the TGI [7]?
The TGI was greater than 100 µM.

And the CC50 [8]?
The CC50 was 97 µM.

What about the GI50 ([9]; IGROV-1) of the same molecule?
Its GI50 is less than 0.01 µM.

And the CC50 ([9]; IGROV-1, read-out: LC50)?
Its CC50 is greater than 100 µM.

What about the GI50 (SR leukemia cells [10]) of the same molecule?
Its GI50 is less than 0.01 µM.

What about the CC50 (SR leukemia cells [10]; Homo sapiens, read-out: LC50) of the same molecule?
Its CC50 is greater than 100 µM.

And the TGI (K-562 leukemia cells)?
The TGI was greater than 100 µM.

What about the TGI (CCRF-CEM leukemia cells) of the same molecule?
Its TGI is greater than 100 µM.

And the GI50 [11]?
Its GI50 is less than 0.01 µM.

What about the CC50 ([11]; read-out: LC50) of the same molecule?
Its CC50 is greater than 100 µM.

And the CC50 [12]?
Its CC50 is greater than 100 µM.

What about the TGI [13] of the same molecule?
Its TGI is greater than 100 µM.

And the GI50 (RPMI-8226 leukemia cells; RPMI-8226)?
Its GI50 is less than 0.01 µM.

What about the CC50 (RPMI-8226 leukemia cells; RPMI-8226, read-out: LC50) of the same molecule?
Its CC50 is greater than 100 µM.

And the GI50 (SK-MEL-2 melanoma cells; SK-MEL-2)?
The GI50 was less than 0.01 µM.

And the CC50 (SK-MEL-2 melanoma cells; SK-MEL-2, read-out: LC50)?
The CC50 was greater than 100 µM.

And the GI50 (HT29 colon cancer cells; HT-29)?
The GI50 was less than 0.01 µM.

And the CC50 (HT29 colon cancer cells; HT-29, read-out: LC50)?
Its CC50 is greater than 100 µM.

What about the GI50 [14] of the same molecule?
The GI50 was less than 0.01 µM.

And the GI50 [15]?
The GI50 was less than 0.01 µM.

What about the CC50 ([15]; read-out: LC50) of the same molecule?
Its CC50 is greater than 100 µM.

And the GI50 ([16]; BT-549)?
The GI50 was less than 0.01 µM.

What about the CC50 ([16]; BT-549, read-out: LC50) of the same molecule?
The CC50 was greater than 100 µM.

And the TGI (UACC-257 melanoma cells [17])?
The TGI was greater than 100 µM.

What about the GI50 (UO-31 renal cancer cells) of the same molecule?
Its GI50 is less than 0.01 µM.

And the TGI (UO-31 renal cancer cells)?
The TGI was 69.1 µM and > 100 µM.

What about the GI50 (UACC-257 melanoma cells [18]; UACC-257) of the same molecule?
Its GI50 is less than 0.01 µM.

What about the CC50 (UACC-257 melanoma cells [18]; UACC-257, read-out: LC50) of the same molecule?
Its CC50 is greater than 100 µM.

What about the TGI (SK-MEL-28 melanoma cells [19]) of the same molecule?
Its TGI is greater than 100 µM.

And the GI50 (LOX IMVI melanoma cells)?
The GI50 was less than 0.01 µM.

What about the CC50 (LOX IMVI melanoma cells; read-out: LC50) of the same molecule?
Its CC50 is greater than 100 µM.

And the GI50 (KM12 colon cancer cells; KM12)?
Its GI50 is less than 0.01 µM.

What about the CC50 (KM12 colon cancer cells; KM12, read-out: LC50) of the same molecule?
Its CC50 is greater than 100 µM.

And the GI50 (M14 melanoma cells; M14)?
The GI50 was less than 0.01 µM.

And the CC50 (M14 melanoma cells; M14, read-out: LC50)?
Its CC50 is greater than 100 µM.

What about the TGI [20] of the same molecule?
Its TGI is greater than 100 µM.

And the GI50 (UACC-62 melanoma cells; UACC-62)?
The GI50 was less than 0.01 µM.

And the CC50 (UACC-62 melanoma cells; UACC-62, read-out: LC50)?
The CC50 was greater than 100 µM.

What about the TGI [21] of the same molecule?
Its TGI is greater than 100 µM.

What about the TGI [22] of the same molecule?
The TGI was less than 0.01 µM.

What about the GI50 ([23]; NCI-H226) of the same molecule?
The GI50 was less than 0.01 µM.

And the CC50 ([23]; NCI-H226, read-out: LC50)?
Its CC50 is greater than 100 µM.

What about the GI50 ([24]; NCI-H23) of the same molecule?
The GI50 was less than 0.01 µM.

What about the CC50 ([24]; NCI-H23, read-out: LC50) of the same molecule?
Its CC50 is greater than 100 µM.

Several values for one entry are separate records, joined by “and”; a condition that tells them apart may be missing. Identical values can stand only once.
